Results from patent US20120164688A1 (Regeneron, published 2012).

Assays:
[1] = molecular target: T1, human nerve growth factor (NGF) (human, UniProt P01138 in part); experiment: BIACORE SPR; mAb captured, human NGF injected
T1 construct: range 122-241; biotin-labeled in OCTET and ELISA assays; also called human NGF; biotin-NGF
Procedure: (§1) Antibodies were captured on either a goat, anti-human or anti-mouse IgG polyclonal antibody surface created by direct amine coupling of the capture antibody to a BIACORE™ chip. […] Kinetic analysis was performed to obtain the equilibrium dissociation constant (KD) and dissociation rate constant, and the latter was used to calculate the antigen/antibody complex dissociation t_{1/2} (Table 1).

[2] = molecular target: T2, human neurotrophin-3 (NT-3) (human, UniProt P20783 139-257); experiment: BIACORE SPR; mAb captured, NT-3 injected
T2 construct: also called human NT-3
T2 sequence (looked up): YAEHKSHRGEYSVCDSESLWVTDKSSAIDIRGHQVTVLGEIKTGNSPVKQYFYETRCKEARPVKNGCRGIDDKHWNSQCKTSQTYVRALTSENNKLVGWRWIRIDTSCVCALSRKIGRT
Procedure: Briefly, goat anti-human IgG polyclonal antibody was chemically linked to a CM5 chip. […] Both association and dissociation phases were monitored and data were analyzed.

[3] = molecular target: T1, human nerve growth factor (NGF); experiment: BIACORE blocking; % free NGF bound to p75-hFc chip
Description: (§2) To identify blocking antibodies, a receptor blocking assay was designed using a BIACORE™ 3000 instrument. Recombinant human TrkA-hFc and human p75-hFc proteins were amine-coupled to a CM5 chip to a density of about 5000-6000 RU.

rat NGF (rNGF) = rat NGF (rNGF) (rat, UniProt P25427 122-241, limits assumed); experiment: BIACORE SPR
Procedure: as §1
(§3) The binding affinities of the antibodies to both mNGF and rNGF were determined as described above.

mouse NGF (mNGF) = mouse NGF (mNGF) (mouse, UniProt P01139 122-241, limits assumed); experiment: BIACORE SPR
Procedure: as §1, §3

[4] = molecular target: T1, human nerve growth factor (NGF); experiment: BIACORE SPR
Procedure: as §1, §3

[5] = molecular target: T1, human nerve growth factor (NGF); experiment: BIACORE SPR; complex dissociation half-life
Procedure: as §1

[6] = molecular target: T1, human nerve growth factor (NGF); experiment: BIACORE blocking; % free NGF bound to TrkA-hFc chip
Description: as §2

[7] = molecular target: T1, human nerve growth factor (NGF); experiment: cell-based or functional assay

T1 sequence (P01138 122-241 limits assumed): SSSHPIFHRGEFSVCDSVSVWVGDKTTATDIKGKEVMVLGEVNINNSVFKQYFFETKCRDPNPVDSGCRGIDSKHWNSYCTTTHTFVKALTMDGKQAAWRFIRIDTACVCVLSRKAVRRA
mouse NGF (mNGF), sequence (P01139 122-241 limits assumed): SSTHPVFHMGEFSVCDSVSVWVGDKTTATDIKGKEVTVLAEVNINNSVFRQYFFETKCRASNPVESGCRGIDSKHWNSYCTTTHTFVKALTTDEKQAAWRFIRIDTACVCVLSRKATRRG
rat NGF (rNGF), sequence (P25427 122-241 limits assumed): as the sequence (P01139 122-241 limits assumed) above, with A40G, R50K, S61P, E94D, T117A counted along it

B1: 301272-6E07-D10 (antibody)
heavy: EVQLVQSGGGLVQPGRSLRLSCAAPGFNFDDYAMHWVRQTPGKGLEWVSGISWNSGTIGYADSVKGRFTISRDNAKNSLYLQMNSLRPEDTALYYCAKEGVWFGKLFSSYGMDVWGQGTTVTVSS[human IgG1 constant region omitted here]
VL: DIRMTQSPATLSVSPGERATLSCRASQSVTYNLDWYQQKPGQAPRLLIFGASTRATGIPARFSGSGSGTEFTLTITSLQSEDFAVYYCQQYNNWPYTFGQGTKVEIK
notes: also called REGN263
With B1 the Kd [1] was 0.013 nM, the binding result [2] was “no binding (tested: 20 nM)” and the “% Binding p75-hFc” value [3] was 6%. The Kd (rat NGF (rNGF)) was 0.36 nM, the Kd (mouse NGF (mNGF)) was 0.362 nM and the Kd [4] was 0.013 nM. The t1/2 [5] was 4.5 h, the “% Binding TrkA-hFc” value [6] was 4% and the “MG87 IC50” value [7] was 0.293 nM. The “PC12 IC50” value [7] was 0.726 nM.
